Measurements taken from PubChem BioAssay AID1508649 (National Center for Advancing Translational Sciences (NCATS), 2021).
The campaign covered roughly 43,000 compounds. About 830 (1.9%) were called active. This list was built around the results that the source calls inconclusive (neither active nor inactive); the mix of calls is not that of the screen. Rule for the calls: active = clear falling dose curves in both reporters; inconclusive = both reporters move, but less clearly or upward; inactive = either reporter flat; the % is the NLuc reporter signal. Potencies of inconclusive entries are left out as doubtful fits.

assay: Cell-based coincidence reporter assay to measure PMP22 gene transcription in S16 Pmp22-F2sN cells - Primary screen; settings: S16 Pmp22-F2sN Schwann cells (luciferase reporters placed in the Pmp22 gene), FLuc/NLuc coincidence luminescence, 24 h; measured here: NLuc reporter readout, at 57.5 µM (top of the series); activity change, negative = inhibition: at the top concentration
Outline: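 S16 Schwann cells carrying FLuc/NLuc coincidence reporter in the Pmp22 3' UTR treated with compound 24 h at 37C; FLuc then NLuc luminescence read sequentially by dual-luciferase reagents.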
% is set by controls: 0 for no effect and ±100 for the full control effect; potency is the fitted concentration of half-maximal effect; tags give direction and shape of the fitted curve.

| Structure (SMILES) | Potency | activity change, negative = inhibition |
| --- | --- | --- |
| CCCCCn1c(=O)[nH]c2cc(C(=O)Nc3ccc(F)c(F)c3)ccc2c1=O | inconclusive [phenotype inactive, single point] |  |
| CCC(C)c1ccc2oc(-c3ccc(NC(=O)c4cc5ccccc5o4)cc3)nc2c1 (stereo not given) |  | inactive: -12.1% |
| CCCC(=O)N(c1ccc2oc(C)c(C(C)=O)c2c1)S(=O)(=O)c1ccc(CC)cc1 | active: 8.43 µM |  |
| O=C1CS(=O)(=O)C2(C(=O)N(Cc3ccccc3Cl)c3ccccc32)N1c1ccc(F)cc1 (stereo not given) | inconclusive [phenotype inactive, single point] |  |
| O=C(NCC(c1cccnc1)N1CCc2ccccc21)c1cccc(Br)c1 (stereo not given) | inconclusive [phenotype inactive, single point] |  |
| Cc1cc(C)c(NC(=O)C2CCN(c3nc4ccccc4n4cccc34)CC2)c(C)c1 |  | inactive: -18.3% |
| Fc1ccc(-n2ncc3c(NCCC4=CCCCC4)ncnc32)cc1 |  | inactive: -128% |
| COc1ccc(-c2cc(C(=O)Nc3cccc(O)c3)on2)cc1OC | inconclusive [phenotype inactive, single point] |  |
| Cc1ccc(Cl)cc1N1CCN(CCCNC(=O)C2COc3ccccc3C2)CC1 (stereo not given) | inconclusive [phenotype inactive, partial curve, poor fit] |  |
| CCCN(CCC)S(=O)(=O)c1ccc(C(=O)Nc2cccc(-c3nc4ccccc4[nH]3)c2)cc1 | active: 18.9 µM |  |
| COc1cccc(NC(=O)c2oc3ccccc3c2NC(=O)c2cc3ccccc3o2)c1 | inconclusive [phenotype inactive, single point] |  |
| CCOc1ccc(-c2nonc2NC(=O)c2oc3cc(Br)ccc3c2C)cc1 | active: 9.46 µM |  |
| COc1ccc(-c2nn(-c3ccc(F)cc3F)c3c2cnc2ccc(F)cc23)cc1 | inconclusive [phenotype inactive, partial curve, poor fit] |  |
| Cc1cccc(-c2nnc(SCCC(=O)O)o2)c1 |  | inactive: -3.3% |
| Cc1ccc(C)c(CN2C(=O)C(O)(c3c[nH]c4ccccc34)c3ccccc32)c1 (stereo not given) | inconclusive [phenotype inactive, single point] |  |
| CN1C(=O)c2ccccc2Sc2ccc(NC(=O)COc3ccc(Cl)cc3)cc21 | inconclusive [phenotype inactive, single point] |  |
| CCc1ccc(N2C(=O)CS(=O)(=O)C23C(=O)N(Cc2ccccc2F)c2ccccc23)cc1 (stereo not given) |  | inactive: -10.1% |
| COc1ccc2c(c1)c(=O)c(C(=O)c1ccc(Cl)cc1)cn2CC(=O)Nc1ccc2c(c1)OCO2 |  | inactive: -41.5% |
| Cc1ccc(C)c(CSc2nc3ccncc3n2Cc2nc(-c3ccccc3Cl)oc2C)c1 | inconclusive [phenotype inactive, single point] |  |
| CCc1ccc(CNC(=O)Cc2c(C(=O)O)c(C)cn2C)cc1 |  | inactive: 28.2% |

| Structure (SMILES) | Potency | activity change, negative = inhibition |
| --- | --- | --- |
| O=C(CCCn1c(=O)c2ccccc2n(CC(=O)Nc2ccc(F)cc2F)c1=O)NCc1ccccc1Cl | inconclusive [phenotype inactive, single point] |  |
| O=C(NCc1cccc(Cl)c1)C1CCCN(c2ncnc3onc(-c4ccc(F)cc4)c23)C1 (stereo not given) | inconclusive [phenotype inactive, single point] |  |
| O=C(CSc1nnc2[nH]c(=O)cc(-c3ccccc3)n12)Nc1cc(C(F)(F)F)ccc1Cl | inconclusive [phenotype inactive, partial curve] |  |
| CCc1ccccc1NC(=O)C(=O)NCCc1sc(-c2cccc(F)c2)nc1C | inconclusive [phenotype inactive, single point] |  |
| CCOC(=O)c1oc2ccc(S(=O)(=O)n3nc(-c4cc(OCC)c(OCC)c(OCC)c4)cc3N)cc2c1C |  | inactive: 6.66% |
| Cc1ccc(Nc2c(-c3ccc(N4CCOCC4)cc3)nc3ncccn23)cc1C | inconclusive [phenotype inactive, single point] |  |
| CC(C)c1ccc(NC(=O)C2CCCN(S(=O)(=O)c3ccc4[nH]c(=O)ccc4c3)C2)cc1 (stereo not given) | inconclusive [phenotype inactive, single point] |  |
| CCCCN(C)S(=O)(=O)c1cc(-c2cc(C)no2)ccc1C | inconclusive [phenotype inactive, single point] |  |
| Cc1ccc(NCc2cccn2-c2nnc(N3CCC(C(=O)NCc4ccc(F)cc4)CC3)s2)cc1 | inconclusive [phenotype inactive, single point] |  |
| COc1ccc(-c2cccc(NS(=O)(=O)c3cc(C)ccc3OC)c2)nn1 |  | inactive: -23.3% |
| Cc1cccc(N2CCN(C(=O)c3nn(C)c4c3CS(=O)(=O)c3ccccc3-4)CC2C)c1 (stereo not given) | inconclusive [phenotype inactive, partial curve, poor fit] |  |
| CC1=C(C(=O)Nc2cccnc2)C(c2ccccc2)n2nc(-c3ccc(O)cc3)nc2N1 (stereo not given) |  | inactive: 13.1% |
| COc1ccc(NC(=O)c2ccc3c(=O)n4nc(Nc5cccc(Cl)c5C)sc4nc3c2)cc1 | inconclusive [phenotype inactive, single point] |  |
| O=c1c(N2CCc3ccccc3C2)csc2ccccc12 | inconclusive [phenotype inactive, single point] |  |
| Cc1ccc(CS(=O)(=O)c2ncc(Cl)c(C(=O)Nc3nc4ccc(F)cc4s3)n2)cc1 | active: 5.39 µM |  |
| CCC(Oc1ccccc1)C(=O)Nc1cc(-c2ccccc2OC)nn1-c1ccccc1 (stereo not given) | inconclusive [phenotype inactive, partial curve, poor fit] |  |
| COCCNc1nc2c(S(=O)(=O)c3ccc(C)c(C)c3)nnn2c2ccc(Cl)cc12 |  | inactive: 10.4% |
| Cc1ccc(NS(=O)(=O)c2ccc3c(c2)CCCN3C(=O)C2CCC2)cc1Cl | inconclusive [phenotype inactive, single point] |  |
| COc1cccc(C(c2c(O)cc(C)n(Cc3ccco3)c2=O)N2CCN(c3ccccc3)CC2)c1 (stereo not given) | inconclusive [phenotype inactive, partial curve, poor fit] |  |
| O=C(Nc1cccc(Cl)c1)c1cnc[nH]1 |  | inactive: 6.59% |

| Structure (SMILES) | Potency | activity change, negative = inhibition |
| --- | --- | --- |
| CN(Cc1ccccc1)c1ncnc2onc(-c3ccc(F)cc3)c12 | inconclusive [phenotype inactive, single point] |  |
| CCCCOc1cccc(NC(=O)CSc2nnc(C)s2)c1 |  | inactive: -28.4% |
| CCCCC(CC)CNC(=O)c1ccc2c(=O)n(Cc3ccc(OC)cc3)c(=O)[nH]c2c1 (stereo not given) | active: 12.1 µM |  |
| O=C(NCc1ccc(Cl)cc1)C1CCCN(c2nc3ccccc3n3cccc23)C1 (stereo not given) | inconclusive [phenotype inactive, single point] |  |
| O=c1c(N2CCN(c3cccc(C(F)(F)F)c3)CC2)csc2ccc(Cl)cc12 | inconclusive [phenotype inactive, single point] |  |
| COc1ccc(OC)c(CCNC(=O)c2cnn(-c3ccccc3)c2C2CCN(C(=O)OC(C)(C)C)CC2)c1 | inconclusive [phenotype inactive, single point] |  |
| CCS(=O)(=O)c1nc(S(=O)(=O)c2ccc(Cl)cc2)c(NCc2ccccc2Cl)s1 | active: 4.8 µM |  |
| O=c1c2c(-c3ccc(Cl)cc3)ccnc2[nH]n1-c1ccccc1 |  | inactive: 33.2% |
| CCOC(=O)c1[nH]c2c(c1Cc1ccccc1)C(=O)CC(c1ccc(Cl)cc1)C2 (stereo not given) |  | inactive: -21.6% |
| COc1ccc(CCNS(=O)(=O)c2ccc3c(c2)CC(C)N3C(=O)C2CCC2)cc1OC (stereo not given) | inconclusive [phenotype inactive, partial curve, poor fit] |  |
| COc1ccc(CCNC(=O)CCCn2c(=O)c3ccccc3n(Cc3cccc(Cl)c3)c2=O)cc1OC | inconclusive [phenotype inactive, single point] |  |
| CCOC(=O)N1CCC(NC(=O)c2c(C)nn(-c3ccc(C)cc3)c2-n2cccc2)CC1 | inconclusive [phenotype inactive, full curve, poor fit] |  |
| COc1ccc(OC)c(CCNC(=O)c2ccc3c(c2)N(Cc2ccc(C)cc2)CCS3)c1 | inconclusive [phenotype inactive, single point] |  |
| CCN(CC)CCOC(=O)c1ccc(NC(=O)Cn2ncc3c([nH]c4ccc(C)cc43)c2=O)cc1 | active: 10 µM |  |
| CCOc1cccc(CNC(=O)c2ccc(N3CCCC3)c(NC(=O)NCc3ccc(F)cc3)c2)c1 | inconclusive [phenotype inactive, single point] |  |
| CCCCNC(=O)c1nn(-c2ccc(C)cc2)c(=O)c2c1c1ccccc1n2C |  | inactive: -20.5% |
| Cn1c(SCC(=O)N2CCCc3ccccc32)ncc(C(=O)Nc2ccc(F)cc2)c1=O | inconclusive [phenotype inactive, partial curve, poor fit] |  |
| CC1CCN(S(=O)(=O)c2ccc3c(c2)oc(=O)n3CC(=O)NC(C)c2ccccc2)CC1 (stereo not given) | inconclusive [phenotype inactive, partial curve, poor fit] |  |
| Cc1ccc(-n2ncc(C(=O)Nc3ccc4c(c3)OCCO4)c2C2CCN(C(=O)OC(C)(C)C)CC2)cc1 | inconclusive [phenotype inactive, single point] |  |
| Cc1ccccc1CNC(=O)C1CCN(c2nnc(-n3c(C)ccc3C)s2)CC1 | inconclusive [phenotype inactive, partial curve] |  |
